# Whole data set: some 33,000 sequences, median “E-score (-0.5 to 0.5)” near -0.032, cut for the highest 2% near 0.36. The list shows a part of the results.
# Target: T1, Sko1 (UniProt Q02100)
# T1 sequence: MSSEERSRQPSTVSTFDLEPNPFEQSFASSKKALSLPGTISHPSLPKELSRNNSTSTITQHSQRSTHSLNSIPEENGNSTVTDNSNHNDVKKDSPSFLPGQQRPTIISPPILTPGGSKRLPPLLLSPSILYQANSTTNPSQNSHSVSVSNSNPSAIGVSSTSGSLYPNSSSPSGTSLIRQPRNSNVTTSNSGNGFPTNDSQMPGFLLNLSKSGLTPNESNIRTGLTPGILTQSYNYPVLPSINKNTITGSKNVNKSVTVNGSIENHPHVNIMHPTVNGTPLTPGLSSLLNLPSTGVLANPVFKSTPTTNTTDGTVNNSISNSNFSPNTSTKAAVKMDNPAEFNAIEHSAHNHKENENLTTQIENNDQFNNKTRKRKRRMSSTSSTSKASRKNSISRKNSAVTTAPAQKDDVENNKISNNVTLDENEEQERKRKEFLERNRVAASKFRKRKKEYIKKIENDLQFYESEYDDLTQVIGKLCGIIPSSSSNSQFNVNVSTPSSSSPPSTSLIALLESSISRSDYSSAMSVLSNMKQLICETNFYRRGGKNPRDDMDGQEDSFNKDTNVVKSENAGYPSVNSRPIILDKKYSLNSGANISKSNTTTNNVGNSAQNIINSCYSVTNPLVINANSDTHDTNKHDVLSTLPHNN
# Test: PBM E-score (8-mer binding enrichment) (E-score (-0.5 to 0.5)); higher = stronger / more preferred TF binding; most listed sequences are background and not binding sites
# Conditions: protein concentration: 200 nM; construct: GST-full length
# Summary of the method: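 E-scores (a modified Wilcoxon-Mann-Whitney statistic) were assigned by the Universal PBM Analysis Suite to every ungapped eight-base word pooled with its reverse complement. The input came from universal all-10-mer Agilent arrays made double-stranded by primer extension and probed with GST-tagged yeast transcription factors at about 100-200 nM. Fluorescent anti-GST detected bound protein, and masliner normalised the scans.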
row,Sequence,PBM E-score
1,ATCTTTTC,0.165
2,AACTATTC,0.133
3,CACCTCGC,-0.206
4,AGTTATTG,0.0629
5,CAAGCGTA,0.22
6,CTTAACAC,0.0806
7,CCCTGCAA,-0.0743
8,AAGCCCTA,-0.023
9,ACGGGAGT,-0.102
10,CACATTCC,-0.129
11,CCCATAGG,-0.202
12,CCTTGGCA,-0.234
13,GTATCAAA,0.162
14,ACGGTTGC,-0.0961
15,GTTATCGA,-0.0477
16,ATGCGCGC,0.0437
17,ACTTAAAA,0.241
18,CTGGCCAA,-0.0089
19,CGGCTATC,-0.218
20,AAGGGGCC,-0.214
21,AGTTACAG,-0.0199
22,ACACGGTC,-0.0712
23,CACGATAG,0.0168
24,CCAAATGA,0.187
25,CGAACGCC,-0.17

row,Sequence,PBM E-score
1,AGCGGAAT,0.0256
2,GATCATTA,0.211
3,AGCTGGGC,-0.246
4,GCAGTCAA,-0.262
5,AGATCGAC,0.0496
6,TCCACACA,0.0159
7,AAATTCGA,-0.0439
8,GGCATTGA,-0.104
9,GCCAAGGC,-0.393
10,CTAAAAAG,0.0165
11,CAGTGTCG,-0.0823
12,ATGCACTG,-0.0475
13,AATATTTA,0.325
14,ACCAAAGA,0.0963
15,TAGCAATA,0.165
16,ATTGGGAG,-0.154
17,CACTACTC,0.0536
18,AGAACAAT,0.191
19,CGTATAGC,0.234
20,GTCGTAAA,0.282
21,AAAGTGTG,0.0355
22,AAAACTCC,-0.208
23,CCAACACC,-0.273
24,ATCTTGCA,0.112
25,CCGGACAC,-0.217

row,Sequence,PBM E-score
1,GAAGCACC,-0.0674
2,CCGTGCAG,0.035
3,GACTACTC,0.0323
4,ATCGGATC,-0.00721
5,CAATCCAA,0.0526
6,AGGCGTTA,-0.209
7,ACGTGTAC,0.409
8,CTCGCCGA,-0.198
9,AGTATAAT,0.0736
10,TACTACCA,-0.173
11,CAAAGATA,0.139
12,CGTCCAGA,0.14
13,GCATATCC,-0.135
14,GAACGCGA,0.0396
15,CGAATTCG,-0.0359
16,ATATGTAC,0.19
17,CGCGCACC,0.00717
18,AGAGCAGA,-0.0457
19,ACCGTATA,0.0367
20,CAGAGGCA,-0.00209
21,AGACGGAT,0.0284
22,ATAGAAAA,0.142
23,AAGCCGCT,-0.251
24,ACTCTCAC,-0.0768
25,AGATACTG,0.0876

row,Sequence,PBM E-score
1,CATAATAA,0.345
2,AATTGCGT,0.448
3,AATATTGC,0.257
4,CACACAGC,0.0469
5,CCTGAATA,0.0721
6,AAATGTGA,0.129
7,CCTTGTCA,-0.0549
8,AGCGCTCA,-0.201
9,AATGACGA,0.476
10,AGAGTCCG,-0.222
11,AGAGTTCC,-0.269
12,ACCTTGTC,-0.177
13,ACTCCGTG,-0.0155
14,GATATACA,0.0791
15,CTATGCCC,-0.109
16,ATTACGCA,0.47
17,AAACTGGG,-0.262
18,GACCATCC,-0.0785
19,CGAGGTCC,-0.434
20,AAACCTCT,-0.0982
21,ATTCCATG,-0.0675
22,CTCCTAAG,-0.0682
23,GGGTGATA,-0.168
24,CCGATAAA,-0.0878
25,CACAGACA,0.0497

row,Sequence,PBM E-score
1,ATGCATTG,0.0538
2,AGGGGCCG,-0.177
3,CAGATGGA,-0.0703
4,CGCGATAA,0.172
5,AACAGGTC,-0.144
6,ATGAAAAC,0.22
7,TGACAGAA,0.141
8,ACTACACA,0.189
9,ATGTCTGC,-0.159
10,GCACTATA,-0.016
11,AACGACCC,-0.24
12,TCGCGTCA,0.408
13,GTCCATTA,0.201
14,CCCGGAGC,-0.259
15,CCCACTCC,-0.282
16,AAGCCACA,0.0819
17,CATCTCCG,0.0127
18,GCACACCA,0.0562
19,ATTCTTCC,-0.0522
20,CCGCCATA,-0.182
21,ACAAGTAC,0.154
22,CACAGCAC,-0.0923
23,AATTTTCG,0.0901
24,AGGACAAG,-0.266
25,GGCTACAC,-0.153

row,Sequence,PBM E-score
1,GGATCAAA,-0.0377
2,GACAGGTA,-0.0841
3,AGGGAGAG,-0.334
4,AAAGACGA,0.172
5,GGATCGCC,-0.0722
6,GAAGGGAC,-0.172
7,ATGTTTCA,0.0236
8,CCGGGACC,-0.273
9,AAGACCAT,-0.149
10,GAGATCAA,-0.00777
11,CGTATATA,0.418
12,CTCACAAG,0.042
13,CCTATAGA,-0.0723
14,CCCCGAAG,-0.228
15,AAGCTGAT,0.0838
16,AGTTCTCC,-0.178
17,ATCCATGG,-0.237
18,CTAAATCC,-0.198
19,GCTTGTAA,0.0121
20,CGGGATTC,0.0141
21,AACGCTAA,-0.0246
22,CTTTGGTC,0.0509
23,AGGTAGGC,-0.0922
24,AGCACTAA,-0.192
25,CACGTCGA,0.278

row,Sequence,PBM E-score
1,CATTGAGG,-0.021
2,CCTTGGTA,0.0289
3,ATGAAATC,0.172
4,GGAGTACC,-0.247
5,ACACCCGA,-0.187
6,GCTGAACC,-0.238
7,AAGATTCC,0.0686
8,CGTGTATC,0.116
9,CCCCCTAC,-0.267
10,CCAATGAA,-0.215
11,ATATAGTC,0.194
12,ACCACTGA,-0.00793
13,GGAACCGA,-0.182
14,AGTATATG,0.0683
15,CATTGACA,-0.0852
16,CGCCCGGC,-0.212
17,AGGGCGTG,-0.103
18,CCCTCGTA,-0.00424
19,AACGCCAT,0.195
20,CCAACGCG,0.0116
21,ATGACCAT,0.151
22,CTGCATGA,-0.101

# Reference: the supplement of paper PMC3334620
